Test results as given in the supplement of paper PMC7826260.
The other results are listed elsewhere or left out. The data describe in vitro nicking of single-stranded DNA by Rep domains (1 h at 37 °C, 3 µM enzyme); the outer parts of the 90-letter strands are left off. The score is log2 (uncut reads / reads without enzyme); more negative means more cut, near 0 not cut, and no call is made. Because reads are shares of a total, they shift together, so uncut sequences can rise above 0 when many others are cut.

system: T1, Rep nickase domain of tomato golden mosaic virus; experiment: uncleaved DNA left, log2 of reads against the no-enzyme library (log2 ratio); higher = less cleavage (more negative = more Rep cleavage of the k-mer); sequences stand for … in CTCGTCCG…ACCGGAGA
T1 sequence (residues 1-124 of Rep, tag left off): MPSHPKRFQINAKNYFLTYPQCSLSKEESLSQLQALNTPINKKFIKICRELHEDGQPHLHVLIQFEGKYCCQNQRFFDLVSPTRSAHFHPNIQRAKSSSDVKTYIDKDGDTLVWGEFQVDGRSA
Experimental: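 A pool of 90-nt single-stranded DNAs with seven random bases just before the constant AC of the nick site (name = the seven bases) was cut by 3 µM recombinant His6-SUMO-tagged Rep nickase domain (300 nM DNA, 50 mM HEPES pH 8.0, 50 mM NaCl, 1 mM MnCl2, 1 h, 37 °C, three replicates). Uncut DNA was amplified and sequenced.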

| Sequence | uncleaved DNA left (log2) |
| --- | --- |
| AGTACGA | -0.0465 |
| TATCGTG | -0.0096 |
| CTACCCT | -0.131 |
| GGGACCT | -0.0547 |
| CATCAAC | -0.0825 |
| GAGCAGC | 0.0488 |
| TTCTGCC | -0.0277 |
| CTATAGG | 0.0806 |
| TTCGCCG | -0.276 |
| TAACTCA | -0.122 |
| ATGGGAC | 0.181 |
| TGATCCT | -0.132 |
| TATGGTA | 0.093 |
| GAGATGG | 0.118 |
| TCGGCAA | -0.0333 |
| GCTCTGT | -0.0194 |
| ATAAGGA | 0.168 |
| CCCATGA | 0.0669 |
| CGAATAG | -0.0301 |
| ACGCGAA | 0.0843 |

| Sequence | uncleaved DNA left (log2) |
| --- | --- |
| AGAGTCG | 0.103 |
| CATAAGC | -0.0599 |
| ACCTGAC | -0.0509 |
| GATCGAA | 0.0103 |
| ATAGCAA | -0.036 |
| GTGGTCC | 0.0649 |
| AGCGGTA | 0.123 |
| GCGAAGA | 0.024 |
| ATGCTGC | -0.0593 |
| GCTGCCT | -0.0459 |
| AGACTAT | 0.0747 |
| TTGATCA | 0.0338 |
| GACTTGC | -0.232 |
| AACTGGC | 0.0572 |
| ACTCATA | 0.0712 |
| CAGCTCC | -0.0512 |
| AAATCGC | -0.226 |
| ACTGAAC | -0.0115 |
| GAAAGGG | 0.128 |
| AATGTAA | 0.00694 |
